# Some of the results follow.
# How the values were obtained:
# Assay in all cases: glycan array binding signal (z-score within array); higher = stronger binding
# Settings in all cases: glycan notation: IUPAC condensed, linker removed
# [1] = target: Gal(a1-3)Gal(b1-4)GlcNAc(b1-2)Man
# Summary of the method: (§1)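 The binding signal is a Z-score computed within each array and averaged over linkers. Arrays of the same protein sequence at different concentrations or buffers were also averaged together. Data originate from 3228 arrays in the Consortium for Functional Glycomics database, kept only where the protein sequence was available.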
# [2] = target: Gal(a1-3)Gal(b1-4)GlcNAc(b1-2)Man(a1-3)[Gal(a1-3)Gal(b1-4)GlcNAc(b1-2)Man(a1-6)]Man(b1-4)GlcNAc(b1-4)GlcNAc
# Summary of the method: as §1
# [3] = target: Gal(a1-3)Gal(b1-4)GlcNAc(b1-3)GalNAc
# Summary of the method: as §1
# [4] = target: Gal(a1-3)Gal(b1-4)GlcNAc(b1-6)GalNAc
# Summary of the method: as §1
# [5] = target: Gal(a1-3)Gal(b1-4)[Fuc(a1-3)]GlcNAc
# Summary of the method: as §1
# [6] = target: Gal(a1-3)Gal(b1-4)[Fuc(a1-3)]GlcNAc(b1-2)Man(a1-3)[Gal(a1-3)Gal(b1-4)[Fuc(a1-3)]GlcNAc(b1-2)Man(a1-6)]Man(b1-4)GlcNAc(b1-4)GlcNAc
# Summary of the method: as §1
# [7] = target: Gal(a1-3)GalNAc
# Summary of the method: as §1
# [8] = target: Gal(a1-3)[Gal(a1-4)]Gal(b1-4)GlcNAc
# Summary of the method: as §1
# [9] = target: Gal(a1-4)Gal(b1-3)GlcNAc(b1-2)Man(a1-3)[Gal(a1-4)Gal(b1-3)GlcNAc(b1-2)Man(a1-6)]Man(b1-4)GlcNAc(b1-4)GlcNAc
# Summary of the method: as §1
# [10] = target: Gal(a1-4)Gal(b1-4)Glc
# Summary of the method: as §1
# [11] = target: Gal(a1-4)Gal(b1-4)GlcNAc
# Summary of the method: as §1
# [12] = target: Gal(a1-4)Gal(b1-4)GlcNAc(b1-2)Man(a1-3)[Gal(a1-4)Gal(b1-4)GlcNAc(b1-2)Man(a1-6)]Man(b1-4)GlcNAc(b1-4)GlcNAc
# Summary of the method: as §1
# [13] = target: Gal(a1-4)Gal(b1-4)GlcNAc(b1-3)Gal(b1-4)Glc
# Summary of the method: as §1
# [14] = target: Gal(a1-4)GlcNAc
# Summary of the method: as §1
# [15] = target: Gal(a1-6)Glc
# Summary of the method: as §1
# [16] = target: Gal(b1-2)Gal
# Summary of the method: as §1
# [17] = target: Gal(b1-3)Gal
# Summary of the method: as §1
# [18] = target: Gal(b1-3)Gal(b1-4)GlcNAc
# Summary of the method: as §1
# [19] = target: Gal(b1-3)GalNAc
# Summary of the method: as §1
# [20] = target: Gal(b1-3)GalNAc(a1-3)[Fuc(a1-2)]Gal(b1-4)Glc
# Summary of the method: as §1
# [21] = target: Gal(b1-3)GalNAc(a1-3)[Fuc(a1-2)]Gal(b1-4)GlcNAc
# Summary of the method: as §1
# [22] = target: Gal(b1-3)GalNAc(b1-3)Gal
# Summary of the method: as §1
# [23] = target: Gal(b1-3)GalNAc(b1-3)Gal(a1-4)Gal(b1-4)Glc
# Summary of the method: as §1
# [24] = target: Gal(b1-3)GalNAc(b1-4)Gal(b1-4)Glc
# Summary of the method: as §1
# [25] = target: Gal(b1-3)GalNAc(b1-4)[Neu5Ac(a2-3)]Gal(b1-4)Glc
# Summary of the method: as §1
# [26] = target: Gal(b1-3)GlcNAc
# Summary of the method: as §1
# [27] = target: Gal(b1-3)GlcNAc(a1-3)Gal(b1-4)GlcNAc
# Summary of the method: as §1
# [28] = target: Gal(b1-3)GlcNAc(a1-6)Gal(b1-4)GlcNAc
# Summary of the method: as §1
# [29] = target: Gal(b1-3)GlcNAc(b1-2)Man
# Summary of the method: as §1
# [30] = target: Gal(b1-3)GlcNAc(b1-2)Man(a1-3)[Gal(b1-3)GlcNAc(b1-2)Man(a1-6)]Man(b1-4)GlcNAc(b1-4)GlcNAc
# Summary of the method: as §1
# [31] = target: Gal(b1-3)GlcNAc(b1-2)Man(a1-3)[Gal(b1-3)GlcNAc(b1-2)Man(a1-6)]Man(b1-4)GlcNAc(b1-4)[Fuc(a1-6)]GlcNAc
# Summary of the method: as §1
# [32] = target: Gal(b1-3)GlcNAc(b1-2)Man(a1-3)[GlcNAc(b1-4)][Gal(b1-3)GlcNAc(b1-2)Man(a1-6)]Man(b1-4)GlcNAc(b1-4)GlcNAc
# Summary of the method: as §1
# [33] = target: Gal(b1-3)GlcNAc(b1-2)[Gal(b1-3)GlcNAc(b1-6)]Man(a1-6)[Gal(b1-3)GlcNAc(b1-2)Man(a1-3)]Man(b1-4)GlcNAc(b1-4)GlcNAc
# Summary of the method: as §1
# [34] = target: Gal(b1-3)GlcNAc(b1-3)Gal(b1-3)GlcNAc
# Summary of the method: as §1
# [35] = target: Gal(b1-3)GlcNAc(b1-3)Gal(b1-4)Glc
# Summary of the method: as §1
# [36] = target: Gal(b1-3)GlcNAc(b1-3)Gal(b1-4)GlcNAc
# Summary of the method: as §1
# [37] = target: Gal(b1-3)GlcNAc(b1-3)Gal(b1-4)GlcNAc(b1-2)Man(a1-3)[Gal(b1-3)GlcNAc(b1-3)Gal(b1-4)GlcNAc(b1-2)Man(a1-6)]Man(b1-4)GlcNAc(b1-4)GlcNAc
# Summary of the method: as §1
binder,measurement,setting,value
SAOUHSC 00176 (Staphylococcus aureus) (protein) MSKILKCITLAVVMLLIVTACGPNRSKEDIDKALNKDNSKDKPNQLTMWVDGDKQMAFYKKITDQYTKKTGIKVKLVNIGQNDQLENISLDAPAGKGPDIFFLAHDNTGSAYLQGLAAEIKLSKDELKGFNKQALKAMNYDNKQLALPAIVETTALFYNKKLVKNAPQTLEEVEANAAKLTDSKKKQYGMLFDAKNFYFNYPFLFGNDDYIFKKNGSEYDIHQLGLNSKHVVKNAERLQKWYDKGYLPKAATHDVMIGLFKEGKVGQFVTGPWNINEYQETFGKDLGVTTLPTDGGKPMKPFLGVRGWYLSEYSKHKYWAKDLMLYITSKDTLQKYTDEMSEITGRVDVKSSNPNLKVFEKQARHAEPMPNIPEMRQVWEPMGNASIFISNGKNPKQALDEATNDITQNIKILHPSQNDKKGD,glycan array binding signal (z-score),[1],-0.176
same,glycan array binding signal (z-score),[2],0.006
same,glycan array binding signal (z-score),[3],-0.09
same,glycan array binding signal (z-score),[4],-0.149
same,glycan array binding signal (z-score),[5],-0.12
same,glycan array binding signal (z-score),[6],-0.104
same,glycan array binding signal (z-score),[7],-0.05
same,glycan array binding signal (z-score),[8],-0.077
same,glycan array binding signal (z-score),[9],0.014
same,glycan array binding signal (z-score),[10],-0.013
same,glycan array binding signal (z-score),[11],-0.128
same,glycan array binding signal (z-score),[12],0.197
same,glycan array binding signal (z-score),[13],-0.181
same,glycan array binding signal (z-score),[14],-0.034
same,glycan array binding signal (z-score),[15],-0.088
same,glycan array binding signal (z-score),[16],-0.068
same,glycan array binding signal (z-score),[17],-0.022
same,glycan array binding signal (z-score),[18],-0.027
same,glycan array binding signal (z-score),[19],-0.068
same,glycan array binding signal (z-score),[20],0.001
same,glycan array binding signal (z-score),[21],-0.133
same,glycan array binding signal (z-score),[22],-0.016
same,glycan array binding signal (z-score),[23],-0.122
same,glycan array binding signal (z-score),[24],-0.101
same,glycan array binding signal (z-score),[25],0.015
same,glycan array binding signal (z-score),[26],-0.155
same,glycan array binding signal (z-score),[27],-0.064
same,glycan array binding signal (z-score),[28],-0.122
same,glycan array binding signal (z-score),[29],-0.095
same,glycan array binding signal (z-score),[30],1.06
same,glycan array binding signal (z-score),[31],-0.032
same,glycan array binding signal (z-score),[32],0.259
same,glycan array binding signal (z-score),[33],-0.062
same,glycan array binding signal (z-score),[34],-0.17
same,glycan array binding signal (z-score),[35],-0.221
same,glycan array binding signal (z-score),[36],-0.103
same,glycan array binding signal (z-score),[37],-0.007

# From the supplement of paper PMC8728848
